In all, about 33,000 sequences were measured (“E-score (-0.5 to 0.5)”: median about -0.016, highest 2% from about 0.31 on). The list shows a part of the results.
target: Cst6 (UniProt P40535); experiment: PBM E-score (8-mer binding enrichment) (E-score (-0.5 to 0.5)); higher = stronger / more preferred TF binding; most listed sequences are background and not binding sites; details: protein concentration: 200 nM; construct: GST-DNA-binding domain
In short: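 Using PURExpress in vitro transcription/translation, GST-tagged yeast transcription factors were made in full-length or DNA-binding-domain form. These were applied at about 100-200 nM to double-stranded universal all-10-mer Agilent arrays, and bound protein was detected with fluorescent anti-GST. Scans were normalised with masliner before the Universal PBM Analysis Suite assigned E-scores to ungapped eight-base words pooled with their reverse complements.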

**Q.** For GTTGCGCA, which “PBM E-score” value is on record?
**A.** Its value is -0.153.

**Q.** With AGCTGGGA as the sequence, how does the “PBM E-score” value read?
**A.** Its value is -0.266.

**Q.** With CACAGCCA as the sequence, how does the “PBM E-score” value read?
**A.** Its value is -0.00605.

**Q.** Which “PBM E-score” value does the source give for AGGCCGTC here?
**A.** The value was -0.129.

**Q.** How did the “PBM E-score” value turn out when GAGTACCC was run?
**A.** The value was -0.275.

**Q.** Which “PBM E-score” value does the source give for CGCCCAGC here?
**A.** Its value is -0.0744.

**Q.** For GCGTAGGA, which “PBM E-score” value is on record?
**A.** The value was -0.2.

**Q.** How did the “PBM E-score” value turn out when CTGAACAC was run?
**A.** The value was 0.178.

**Q.** Which “PBM E-score” value does the source give for AGCCATCC here?
**A.** Its value is -0.139.

**Q.** For AGGTATAG, which “PBM E-score” value is on record?
**A.** Its value is -0.151.

**Q.** CACGACCA was tested. Which “PBM E-score” value did it give?
**A.** The value was -0.00602.

**Q.** How did the “PBM E-score” value turn out when CTACCTGC was run?
**A.** The value was -0.173.

**Q.** With ATCCGAGA as the sequence, how does the “PBM E-score” value read?
**A.** The value was -0.0313.

**Q.** Which “PBM E-score” value does the source give for GGCCTAAA here?
**A.** Its value is -0.148.

**Q.** ACAGACAG was tested. Which “PBM E-score” value did it give?
**A.** The value was 0.0695.

**Q.** How did the “PBM E-score” value turn out when ACCAGTGG was run?
**A.** Its value is -0.059.

**Q.** Which “PBM E-score” value does the source give for ACTGTCGA here?
**A.** The value was -0.0803.

**Q.** How did the “PBM E-score” value turn out when GACGTCGA was run?
**A.** Its value is 0.292.

**Q.** Which “PBM E-score” value does the source give for ATCCTTTC here?
**A.** Its value is -0.0433.

**Q.** Which “PBM E-score” value does the source give for GGCGGGGA here?
**A.** Its value is 0.0792.

**Q.** How did the “PBM E-score” value turn out when CCGATCTA was run?
**A.** Its value is -0.27.

**Q.** Which “PBM E-score” value does the source give for ACAGTGGT here?
**A.** Its value is -0.173.

**Q.** CGAAACGC was tested. Which “PBM E-score” value did it give?
**A.** The value was -0.00127.

**Q.** With AGTAGCGG as the sequence, how does the “PBM E-score” value read?
**A.** Its value is -0.119.

**Q.** Which “PBM E-score” value does the source give for GAATGCCA here?
**A.** Its value is -0.0431.

**Q.** With GCGTCAAA as the sequence, how does the “PBM E-score” value read?
**A.** Its value is 0.151.

**Q.** For CGGTTACC, which “PBM E-score” value is on record?
**A.** Its value is -0.114.

**Q.** With ACACGCGT as the sequence, how does the “PBM E-score” value read?
**A.** Its value is 0.0501.

**Q.** AGTTGCTC was tested. Which “PBM E-score” value did it give?
**A.** Its value is -0.14.

**Q.** For GCAACGCC, which “PBM E-score” value is on record?
**A.** Its value is 0.0909.

**Q.** For ATATTAAG, which “PBM E-score” value is on record?
**A.** Its value is 0.212.

**Q.** How did the “PBM E-score” value turn out when AAAACTTT was run?
**A.** The value was -0.0281.

**Q.** AACGGCCA was tested. Which “PBM E-score” value did it give?
**A.** The value was -0.0759.

**Q.** For CACTGGTC, which “PBM E-score” value is on record?
**A.** The value was -0.0469.

**Q.** With AAATGACC as the sequence, how does the “PBM E-score” value read?
**A.** The value was 0.102.

**Q.** How did the “PBM E-score” value turn out when AAACTCAC was run?
**A.** The value was 0.0463.

**Q.** How did the “PBM E-score” value turn out when ACGACTGC was run?
**A.** Its value is -0.216.

**Q.** For GAGCCACA, which “PBM E-score” value is on record?
**A.** Its value is -0.108.

**Q.** For CGCCAAAG, which “PBM E-score” value is on record?
**A.** Its value is -0.258.

**Q.** Which “PBM E-score” value does the source give for ATAGATTG here?
**A.** Its value is 0.14.

**Q.** CTGTGCTA was tested. Which “PBM E-score” value did it give?
**A.** Its value is -0.119.

**Q.** How did the “PBM E-score” value turn out when CTATCGCA was run?
**A.** Its value is -0.0325.

**Q.** GCCTTGTA was tested. Which “PBM E-score” value did it give?
**A.** The value was 0.0465.

**Q.** For ATGTGACA, which “PBM E-score” value is on record?
**A.** The value was 0.151.

**Q.** Which “PBM E-score” value does the source give for CGTAGGTA here?
**A.** Its value is -0.108.

**Q.** Which “PBM E-score” value does the source give for CCCAATCA here?
**A.** Its value is -0.0676.

**Q.** CAAGTGCG was tested. Which “PBM E-score” value did it give?
**A.** The value was 0.0417.

**Q.** With CGCAGAAG as the sequence, how does the “PBM E-score” value read?
**A.** Its value is 0.0478.

**Q.** Which “PBM E-score” value does the source give for ATACCGGA here?
**A.** Its value is -0.0794.

**Q.** For AGGCCGGG, which “PBM E-score” value is on record?
**A.** Its value is -0.325.

**Q.** With AGATCTCC as the sequence, how does the “PBM E-score” value read?
**A.** Its value is -0.222.

**Q.** Which “PBM E-score” value does the source give for GGGTCGAA here?
**A.** Its value is -0.256.

**Q.** Which “PBM E-score” value does the source give for TCGCGCGA here?
**A.** Its value is 0.169.

**Q.** How did the “PBM E-score” value turn out when AGAACTAG was run?
**A.** The value was -0.143.

**Q.** With ATTGATCC as the sequence, how does the “PBM E-score” value read?
**A.** The value was 0.0874.
